We go through 74 molecules from the supplement of paper PMC10600219.

Molecules are shown by their SMILES. Structures can show the parent of a compound that is named as a salt. Whole data set: some 2,800 compounds, median “cell viability relative to vehicle” near 1.1, cut for the lowest 2% near 0.19. The list shows a part of the results.

The subject of this assay is NCI-H2228 parental. The assay is described as follows: cell viability relative to vehicle (fraction of vehicle); NCI-H2228 is an ALK-positive lung cancer line and DTP means drug-tolerant persister; higher = less growth inhibition. As to conditions: 100 nM; treatment time 6 days. In outline: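 The 3114-agent TargetMol anti-cancer compound library was tested at 100 nM for 6 days on parental NCI-H2228 cells and on persister cells derived with 1000 nM of a targeted drug for 13 days. ATP readout by the CellTiter-Glo 3D Cell Viability Assay gave cell viability relative to DMSO vehicle-treated cells.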
Regarding `N=C(N)c1ccc(N=NNc2ccc(C(=N)N)cc2)cc1` [Diminazene Aceturate], the cell viability is 1.02. Next, `CCCOc1ccc(/C=C2\SC(=O)NC2=O)cc1`: 1.11.

In the case of `CC1(C)C(=O)N(CCN2CCC(C(=O)c3ccc(F)cc3)CC2)c2ccccc21`, the cell viability worked out at 1.22. In the case of `NC(=O)Nc1sc(-c2ccc(F)cc2)cc1C(N)=O`, the cell viability stood at 1.07.

For the molecule `C[C@@H]1O[C@@H](OC[C@H]2O[C@@H](Oc3c(-c4ccc(O)c(O)c4)oc4cc(O)cc(O)c4c3=O)[C@H](O)[C@@H](O)[C@@H]2O)[C@H](O)[C@H](O)[C@H]1O` [Rutin], the cell viability was determined as 1.07. As for `C=C[C@H]1[C@H](O[C@@H]2O[C@H](CO)[C@@H](O)[C@H](O)[C@H]2O)OC=C2C(=O)OCC[C@]21O` [Swertiamarin], the cell viability was determined as 1.11. On to `Cc1nn(C)c(COc2ccc(N3CCN(S(=O)(=O)N(C)C)CC3)cc2)c1-c1cccc2c(CCCOc3cccc4ccccc34)c(C(=O)O)n(CCN3CCOCC3)c12`, for which the cell viability was 1.05.

Consider `CCCC(=O)Nc1ccc(OCC(O)CNC(C)C)c(C(C)=O)c1` (centres undefined) [Acebutolol hydrochloride], for which the cell viability stood at 0.936. As to `CCCCCC=CC(=O)CCc1ccc(O)c(OC)c1` [6-Shogaol], the cell viability worked out at 1.05. With `CN1CCN(c2ccc(Nc3cc(-c4cccc(-n5ccc6cc(C7CC7)cc(F)c6c5=O)c4CO)cn(C)c3=O)nc2)CC1`, the cell viability was determined as 1.06. `CN(C)C(=O)c1cc2cnc(Nc3ccc(N4CCNCC4)cn3)nc2n1C1CCCC1` [Ribociclib]: the cell viability was found to be 1.07. For the molecule `CC(=O)O[C@]1(C(C)=O)CC[C@H]2[C@@H]3C=C(C)C4=CC(=O)CC[C@]4(C)[C@H]3CC[C@@]21C` [Megestrol acetate], the cell viability stood at 1.1.

As for `NC(=O)c1cnc(-c2ccc(C3(N)CCC3)cc2)c(-c2ccccc2)c1`, the cell viability was 1.02. With `Nc1nnc(-c2cccc(Cl)c2Cl)c(N)n1` [Lamotrigine] the figure was 1.13. Next, `Cc1cc(Nc2cc(CN3CCOCC3)c3nc(C)c(Cc4ccc(Cl)cc4F)n3n2)n[nH]1` [Gandotinib]: 0.984.

For the molecule `CCOC(=O)N[C@@H]1CC[C@@H]2[C@@H](C1)C[C@H]1C(=O)O[C@H](C)[C@H]1[C@H]2/C=C/c1ccc(-c2cccc(F)c2)cn1` [Vorapaxar sulfate], the cell viability came out at 1.12.

Take `CCOC(=O)N[C@@H]1CC[C@@H]2[C@@H](C1)C[C@H]1C(=O)O[C@H](C)[C@H]1[C@H]2/C=C/c1ccc(-c2cccc(F)c2)cn1` [Vorapaxar]: the cell viability stood at 0.872. On to `CC[C@@]1(O)C(=O)OCc2c1cc1n(c2=O)Cc2cc3c(CN(C)C)c(O)ccc3nc2-1` [Topotecan hydrochloride], for which the cell viability was determined as 0.0837.

As to `Nc1nc(=O)[nH]cc1F` [Fluorocytosine], the cell viability was found to be 0.987. Turning to `CCN1CCN(c2ccc(Nc3cc(N(C)C(=O)Nc4c(Cl)c(OC)cc(OC)c4Cl)ncn3)cc2)CC1` [Infigratinib], the cell viability is 1.01. In the case of `Oc1cc(O)cc(/C=C/c2ccc(O)c(O)c2)c1` [Piceatannol], the cell viability was found to be 1.13. Take `CN(C)Cc1ccc(-c2cnn3c(-c4cccc(NC(=O)c5cccc(C(F)(F)F)c5)c4)ccnc23)cc1`: the cell viability came out at 1.05. For `COc1cc2ncnc(Nc3ccc(O)c(Br)c3)c2cc1OC`, the cell viability stood at 1.22.

As for `O=C(O)c1ccc(O)c2ncccc12`, the cell viability was 0.985. For `Nc1[nH]c(=O)nc2c1ncn2[C@@H]1O[C@H](CO)[C@@H](O)[C@H]1O`, the cell viability worked out at 1.09.

In the case of `COc1cc(-c2cc(-c3cccc(O)c3)cnc2N)cc(OC)c1OC`, the cell viability worked out at 1.25. Take `N=C(NOCC(O)CN1CCCCC1)c1cccnc1` (centres undefined): the cell viability worked out at 1.09.

Consider `O=C(c1ccc(Cl)cc1Cl)n1nnc2ccccc21`, for which the cell viability is 1.07. Turning to `CCCC(=O)Nc1cccc(NC(=O)c2ccccc2Br)c1`, the cell viability is 1.14. Turning to `C#CC1(O)CC[C@H]2[C@@H]3CCC4=CC(=O)CC[C@@H]4[C@H]3CC[C@@]21CC` (some centres undefined) [Norgestrel], the cell viability is 1.21. `CO[C@H]1C[C@@H]2CC[C@@H](C)[C@@](O)(O2)C(=O)C(=O)N2CCCC[C@H]2C(=O)O[C@H]([C@H](C)C[C@@H]2CC[C@H](n3cnnn3)[C@H](OC)C2)CC(=O)[C@H](C)/C=C(\C)[C@@H](O)[C@@H](OC)C(=O)[C@H](C)C[C@H](C)/C=C/C=C/C=C/1C` [Zotarolimus]: the cell viability is 0.754. Next, `C[C@H]1O[C@H](O[C@@H]2[C@@H](O)[C@H](OCCc3ccc(O)c(O)c3)O[C@H](CO[C@H]3OCC(O)(CO)[C@@H]3O)[C@H]2OC(=O)/C=C/c2ccc(O)c(O)c2)[C@@H](O)[C@@H](O)[C@@H]1O` (some centres undefined) [Forsythoside B]: 1.12; `COc1cc(C(=O)OCCCCNC(=N)N)cc(OC)c1O` [Leonurine hydrochloride]: 0.982; `CCOCCn1c(N2CCCN(C)CC2)nc2ccccc21` [Emedastine]: 0.894. Turning to `Cc1cccn2c(=O)c(-c3nnn[nH]3)cnc12` [Pemirolast potassium], the cell viability was 1.23.

For `CC[C@H](C)C(=O)O[C@H]1C[C@H](O)C=C2C=C[C@H](C)[C@H](CC[C@@H](O)C[C@@H](O)CC(=O)O)[C@H]21` [Pravastatin sodium], the cell viability turned out to be 1.15. For the molecule `CC1=C(C(=O)O)N2C(=O)[C@@H](NC(=O)[C@H](N)c3ccccc3)[C@H]2SC1` [Cephalexin], the cell viability is 1.14. Next, `CC(C)(C)NCC(O)COc1cccc2c1CC(O)C(O)C2` (centres undefined) [Nadolol]: 1.06; `Cn1nc(-c2ccc(C(F)(F)F)cc2)nc2c(=O)n(C)c(=O)nc1-2` [Walrycin B]: 0.881. On to `C[C@H](CCC(=O)NCCS(=O)(=O)O)[C@H]1CC[C@H]2[C@@H]3[C@H](O)C[C@@H]4C[C@H](O)CC[C@]4(C)[C@H]3C[C@H](O)[C@]12C` [Taurocholic acid sodium salt hydrate], for which the cell viability is 0.981.

Turning to `Nc1ccccc1NC(=O)c1ccc(CNc2nccc(-c3cccnc3)n2)cc1` [Mocetinostat], the cell viability stood at 0.456.

For `COc1cc(-c2cc(-c3ccc(N4CCNCC4)cc3)cnc2C)cc(OC)c1OC`, the cell viability was determined as 1.12. For the molecule `Cc1ccc(S(=O)(=O)/C=C/C#N)cc1`, the cell viability was found to be 1.09. With `Cc1cc([N+](=O)[O-])c(NS(=O)(=O)c2cccc(C(=O)O)c2)cc1-c1cccnc1` [Alofanib] the figure was 1.05; with `CC[C@H](C)[C@@H]1NC(=O)[C@@H]2CCCN2C(=O)[C@@H]2CCCN2C(=O)[C@@H]2CCCN2C(=O)[C@H](CC(C)C)NC(=O)CNC(=O)CNC(=O)[C@H](Cc2ccccc2)NC1=O` [Heterophyllin B], 1. As for `COc1ccc2cc3[n+](cc2c1OC)CCc1cc2c(cc1-3)OCO2` [Berberine], the cell viability was found to be 1.06. Regarding `Nc1ncnc2c1ncn2[C@@H]1O[C@H](CO)C[C@H]1O` [Cordycepin], the cell viability came out at 1.07. As to `Cn1sc(=O)n(Cc2ccccc2)c1=O`, the cell viability was determined as 1.01. Take `Cc1nccn1CC1CCc2c(c3ccccc3n2C)C1=O` (centres undefined) [Ondansetron hydrochloride]: the cell viability amounted to 0.923. With `CC(=O)NC[C@H]1CN(c2ccc(N3CCOCC3)c(F)c2)C(=O)O1` [Linezolid], the cell viability worked out at 1.22.

Turning to `COc1cc(C2Oc3ccc(C4Oc5cc(O)cc(O)c5C(=O)C4O)cc3OC2CO)ccc1O` (centres undefined) [Isosilybin], the cell viability is 1.14. As to `CC(C)Cc1ccc([C@@H](C)C(=O)NS(C)(=O)=O)cc1` [Repertaxin], the cell viability was 1.07. With `COc1ccc2c(c1)c(CC(=O)OCC(=O)O)c(C)n2C(=O)c1ccc(Cl)cc1` [Acemetacin] the figure was 1.34; with `C#Cc1cccc(Nc2ncnc3cc(OCCOC)c(OCCOC)cc23)c1` [Erlotinib], 1.07; with `COc1ccc(Cn2ccc3ccc(C(=O)NO)cc32)cc1`, 1.07. For the molecule `NS(=O)(=O)c1cc2c(cc1Cl)NC(C(Cl)Cl)NS2(=O)=O` (centres undefined) [Trichlormethiazide], the cell viability is 1.07. On to `NC(=O)c1cnc(N[C@@H]2CCCC[C@@H]2N)nc1Nc1cccc(-n2nccn2)c1`, for which the cell viability amounted to 0.848. With `O=C1C[C@@H](c2ccc(O)c(O)c2)Oc2cc(O)cc(O)c21` [Eriodictyol] the figure was 1.04; with `CC[C@@](C)(Nc1ccnc(-c2c[nH]c3ncccc23)n1)C(=O)NCC(F)(F)F` [Decernotinib], 1.12. With `Cc1c(-c2ccccc2)oc2c(C(=O)OCCN3CCCCC3)cccc2c1=O` [Flavoxate hydrochloride], the cell viability is 1.19. Take `NCCCC(=O)O` [4-Aminobutyric acid]: the cell viability was found to be 1.17. In the case of `CCCCCCOC(=O)NC(=N)c1ccc(NCc2nc3cc(C(=O)N(CCC(=O)OCC)c4ccccn4)ccc3n2C)cc1` [Dabigatran etexilate], the cell viability came to 1.13. `CC(=O)NC(Cc1ccccc1)C(=O)O` (centres undefined) [Afalanine]: the cell viability came to 1.04. With `CC(C)C[C@@H](C(=O)N[C@H](C(=O)OC1CCCC1)c1ccccc1)[C@H](O)C(=O)NO` [Tosedostat] the figure was 0.507. Consider `NS(=O)(=O)c1ccc(NC2=CC(=O)c3ccccc3C2=O)cc1`, for which the cell viability was 0.842.

With `CCCCCCCCCCCCCCCCCCCCCCO` [n-Docosanol], the cell viability is 1.09.

Take `Cc1cc(C)c(CNC(=O)c2cc(-c3ccc(CN4CCOCC4)cc3)cc3c2cnn3C2CCCC2)c(=O)[nH]1`: the cell viability came to 1.06.

`C[C@H](N=C(NC#N)Nc1cccc2ncccc12)c1ccccc1`: the cell viability was determined as 1.02.

On to `CCN(CC)CCNc1ccc(C)c2sc3ccccc3c(=O)c12` [Lucanthone], for which the cell viability is 0.956.

For the molecule `CN[C@@H]1[C@@H](O[C@H]2O[C@H](CO)[C@@H](N)[C@H](O)[C@H]2O)OC2C[C@@H](N)[C@@H](O[C@H]3[C@H](O)[C@@H](O)[C@H](N)C[C@@H]3N)OC2[C@@H]1O` (some centres undefined) [Apramycin sulfate], the cell viability was determined as 1.06.

Consider `CC12CCC(CC1=O)C2(C)C` [D-Camphor], for which the cell viability came to 1.03. In the case of `CC/C(=C(\c1ccc(O)cc1)c1ccc(OCCN(C)C)cc1)c1ccccc1` [4-Hydroxytamoxifen], the cell viability is 1.02.

As for `CC1(C)O[C@H]2CC(=O)OC[C@]23[C@H]2CC[C@@]4(C)[C@H](c5ccoc5)OC(=O)[C@H]5O[C@]54[C@]2(C)C(=O)C[C@@H]13` [Limonin], the cell viability was determined as 0.96. For `CCCCCNC(=O)N1CCC(CN(Cc2ccc(Cl)cc2)Cc2ccc([N+](=O)[O-])s2)C1` (centres undefined), the cell viability was found to be 1.06.
